Data taken from the supplement of paper PMC4466236.
In all, about 33,000 sequences were measured (“E-score (dimensionless, -0.5 to 0.5)”: median about -0.058, highest 2% from about 0.35 on). This is one part of the list.

Test system: MvaT
Test: PBM 8-mer E-score (mean of HK and ME arrays) (E-score (dimensionless, -0.5 to 0.5)); higher = stronger relative binding preference; most listed sequences are background and not binding sites
Procedure: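 Protein binding microarray: GST-tagged full-length MvaT (P. aeruginosa PAO1) bound to two universal double-stranded 60-mer arrays (ME and HK), each with a constant 25-mer primer and a variable 35-mer region covering all 8-mers. The 8-mer E-score (rank-based, range -0.5 to 0.5, >0.45 = specific binding) is the mean of the two arrays.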

Row | Sequence | PBM 8-mer E-score
1 | CCTCATCG | -0.214
2 | CGAATGCC | -0.185
3 | CTTTAGTC | -0.127
4 | ATGCCGCG | -0.149
5 | GAGGTAGA | -0.147
6 | GACTGGAC | -0.108
7 | CTAGACTA | -0.0236
8 | CTTAAACA | 0.156
9 | CTAGGGGC | -0.298
10 | GCCAGTAC | -0.0306
11 | CTGTCAGC | -0.181
12 | CGCAACCC | -0.0943
13 | ATCGAGGG | -0.246
14 | ACTACTGG | 0.0326
15 | GAGTACAC | -0.00583
16 | CTAGGTTA | -0.0518
17 | CATAAACA | 0.221
18 | ACAGGTCT | -0.131
19 | GTGGAAAC | -0.123
20 | AAATTGAG | 0.218
21 | ATTAGCGG | -0.0498
22 | CGTTTAGC | -0.0192
23 | AACCCTTG | -0.138
24 | ATCAGGCG | -0.0225

Row | Sequence | PBM 8-mer E-score
25 | ATAACCGC | 0.134
26 | AGCTAATA | 0.292
27 | CATCGGAA | -0.0575
28 | AATGCACA | 0.156
29 | CCGAGTCG | -0.193
30 | ACTCTTAA | 0.223
31 | ACTCATGC | -0.131
32 | ACACTCAC | -0.0149
33 | TAACGGCA | 0.0803
34 | AACCTGCG | -0.133
35 | CGCTTTCC | -0.208
36 | CAGCCAAA | -0.0503
37 | AAGTGGTG | 0.0778
38 | GTGGTCGA | -0.241
39 | AACACGGG | -0.0612
40 | GGGTCATA | -0.0569
41 | ACAAATCC | 0.0804
42 | CCGTAAGC | -0.12
43 | ACCCACGC | -0.179
44 | CACCTTGA | -0.124
45 | TTCGAGAA | 0.0479
46 | CCACGTGG | -0.133
47 | AGACGCAC | 0.00037
48 | CCTCGCCA | -0.0344

Row | Sequence | PBM 8-mer E-score
49 | GGCGGCTA | -0.26
50 | AGATCCTA | -0.24
51 | GCATCAAA | 0.108
52 | AAGACTAC | -0.0432
53 | GACTGGCC | -0.107
54 | CCACGTGC | -0.191
55 | CATCTACA | 0.0792
56 | AAGCAAGT | 0.254
57 | ATCCAAGC | -0.169
58 | ATAGACTA | 0.266
59 | CCCACTAC | -0.0788
60 | CACAGGCA | -0.166
61 | CCTAGCCC | -0.211
62 | AAAGATGT | 0.12
63 | GAGGAGCC | -0.425
64 | CGTTGATC | -0.0686
65 | ATATCGCG | 0.311
66 | AACGGAGA | -0.128
67 | CAATCTAA | 0.124
68 | AGTGTATA | 0.268
69 | GAGTTCGC | -0.0664
70 | ACTCCAGG | -0.157
71 | GCTAGTAA | 0.0817
72 | AAACTACT | 0.303

Row | Sequence | PBM 8-mer E-score
73 | GACCGGTA | 0.0195
74 | CGCGTGAG | -0.167
75 | AGCGAGCT | -0.0901
76 | AGGTTCAC | -0.0288
77 | AGCTGTCA | -0.156
78 | AACGGCTC | 0.0115
79 | AACGCCCA | -0.0993
80 | CAGAAACC | -0.146
81 | CACAGGGA | -0.129
82 | CGTTCGGA | -0.0914
83 | CGCCTTAG | -0.186
84 | CTCCACTC | -0.232
85 | AACGTACA | 0.132
86 | GGTAACTA | 0.107
87 | CGGCCGGC | -0.122
88 | CAGGAAAG | -0.11
89 | CCTAAAAG | 0.082
90 | CGTGCGTC | -0.273
91 | CATTCACC | 0.119
92 | CAAGGCTG | -0.161
93 | GGCAGTCA | -0.0856
94 | ACGCGTGA | 0.0619
